The record followed here is the RNAGym collection of RNA variant scans (doi:10.7554/elife.90254).

The source gives no read counts; variants with many changes may rest on few reads.

Sequences and labels used below:
B1: LINE1-mini (parent)
chain: GGCAGAGCUCAACACAGCGUGGCAAAGUGGCUGUGGCUAGACUGCC

This data set covers variants of B1. Briefly: self-cleavage, relative activity (ratio to wild type); higher = more cleavage; in vitro, sequencing; the parent is a self-cleaving ribozyme.
On to GGAAGAGCACAACACAGCGUGGCAAAGUGGCUGUGGCAAGAAUGCC, for which the self-cleavage amounted to 0.06.
The same measure for GGAAGAGCUCAACACAGCGUGGCAAAGGGGAGGUGGCUAGACUGCU: 0.06; for GGAAGAGCUCAACACAGCGAGGCAAAGUGUCCGUGGCUAUACUGCC: 0.17; for GGAAGAGCUCAACACAGCGAGGAAAAGUCGCUGUGGCUAGACUGCC: 0.09.
In the case of GGAAGAGCUCAACACAGCGUGGCAAAGUGGCAGUGGGUAGACUGCA, the self-cleavage came to 0.05.
In the case of GGAAGAGCACAACACAGUGUGGCAAAGUGGCUGUGGCUAAGCUGCG, the self-cleavage was 0.09.
On to GGAAGAGCUCAACACAGCGUGGCAAAGAGUGCGUGGCUAGACUGCC, for which the self-cleavage worked out at 0.29.
Consider GGAAGAGCUCAACACAGCGCGGCAAAGUGGCUGUGGCCAGACUGCC, for which the self-cleavage turned out to be 0.26.
The same measure for GGAAGAGCUCAACACAGCGCGGCAAAGUGGCUGUGCCUAGACUGCC: 0.27; for GGAAGAGCCCAACUCAGCGUGGCAAAGUGGCUGUGGCUAGACUGCC: 0.05; for GGAAGAGCACAACAGAGCGUGGUAAAGUGGCUGUGGCUAGACUGCC: 0.23.
In the case of GGAAGAGCUCAACACAGCGGGGCAAAGUGGCUGUGGCUCGACUGCG, the self-cleavage stood at 0.09.
For GGAAGAGCCCAACACAUCGAGGAAAAGUGGCUGUGGCUAGACUGCC, the self-cleavage was 0.02.
Turning to GGAAGAGCUCAACACAGCGCGGCAAAGUGGCUGUGGCUAGACAGCC, the self-cleavage was 0.08.
As to GGAAGAGCUCAACACAGCGUGGCAAAGCGGCUGUGGCUAGACUGCU, the self-cleavage is 0.29.
Consider GGAAGAGCUCAACACAGCGAGGCAUAGUGGCUGUGGCUAGACUGCC, for which the self-cleavage was found to be 0.29.
For the variant GGAAGAGCUCAACACAGCGGGGCAAAGUGGCUGUGGCUACACUGGC, the self-cleavage was 0.09.
GGAAGAGCUCAACACAGCGUGGCAAAGUGGCACUGGCUAGAAUGCC: the self-cleavage stood at 0.06.
For the variant GGAAGAGCUCAACACAGCGUGGCAAAGUGGCCGUGGCUAGAAUGCC, the self-cleavage was 0.1.
In the case of GGAAGAGCACAACACACAGUGGCGAAGUGGCUGUGGCUAGACUGCC, the self-cleavage was 0.26.
On to GGAAGAGCCCAACACAGCGUGCCAAAGUGGCUGUGGCUAGACUGCC, for which the self-cleavage came out at 0.04.
The same measure for GGAAGAGCGCAACAAAGCGUGGCAAAGUGGCGGUGGGUCAACUACC: 0.29.
Consider GGAAGAGCUCAACACAGCGUGGCAAAGUGGCGGAGGCUAGAGUGCC, for which the self-cleavage worked out at 0.14.
For GGAAGAGCUCAACACAGCGAGGCAAAGUGGCUAUGGCUAGACUGCC, the self-cleavage turned out to be 0.2.
For the variant GGAAGAGCUCAACACAGCGGGGCAAAGUGGCUGUAGCUAGACUACC, the self-cleavage worked out at 0.18.
In the case of GGAAGAGCACAAAACAGCGUGGCAAAGCGGCUGUGGCUAUAUUGCC, the self-cleavage amounted to 0.34.
With GGAAGAGCUCAACACAGCGUGGCAAAGUGGCGGUGGCUAGACUGGC, the self-cleavage amounted to 0.19.
The same measure for GGAAGAGCUCAACACAGCGGGGCAAACUGGCUAUGGCUAGACUGCC: 0.04.
As for GGAAGAGCCCAACACAGCGUGGCACAGUGGCUGUGUCUAGACUGCC, the self-cleavage came to 0.02.
The same measure for GGAAGAGCACAACACAGAGUGGCAAAGUUGCUGUGUCUAUACUGCC: 1.21.
In the case of GGAAGAGCCCAACUCAGCGUCGCAAACUGGCUGUGGCUAGGCUGCC, the self-cleavage stood at 0.04.
The figure for GGAAGAGCUCAACACAGCGCGCCAAACUGGCUGUGGCUAGACUGCC is 0.07; for GGAAGAGCUCAACACAGCGAGGCAUAGUGGCUGUGUCUAGAAUGCC it is 0.01.
As for GGAAGAGCCCAACACAGCGUGGCGAAGCGGCUGUCGCUCGACUGCC, the self-cleavage is 0.03.
On to GGAAGAGCACAACACAACGUGGUAAAGUGGCUGUUGCUAGACUGCC, for which the self-cleavage turned out to be 0.16.
As for GGAAGAGCCCAACACAGCGUGGCAAAGUGGCAGUGGCUAGACUUCC, the self-cleavage came out at 0.
As for GGAAGAGCCCAACACAGCGUGGCAAAGUGACUGUGGCUAGACUGCC, the self-cleavage is 0.03.
On to GGAAGAGCACAACACAGCGUGCCAAAAUGGCUGUUGCUAGACUUCC, for which the self-cleavage is 0.08.
Regarding GGAAGAGCUCAACACAGCGUGGCAAAGGAGCAGUGGCUAGACUGCC, the self-cleavage was determined as 0.1.
For the variant GGAAGAGCUCAACACAGCGUGGCAAAGUGGCUGAGGCAAGACUGCC, the self-cleavage was 0.11.
As for GGAAGAGCACAACACAGCGUGGGAAAGUGACUGUGGCUAGACUGCC, the self-cleavage was found to be 0.2.
For GGAAGAGCUCAACACAGCGUGGCAAAGUGGCUGGGGCUAGAGUGCC, the self-cleavage was 0.12.
For GGAAGAGCACAACACAGCGUGGCAAAGUGUCUGUGGCUAGAAUGUC, the self-cleavage amounted to 0.36.
The figure for GGAAGAGCCCAACACAGCGUGGCAAAUUGGCUAUGCCUAGACUGCC is 0.05; for GGAAGAGCUCAACACAGCGUGGCAAAGGGGCUGUGUUUAGACUGUC it is 0.01; for GGAAGAGCACAACACAGCGUGGCAAACUGGCUGUGGCUUUACUGCC it is 0.01.
Turning to GGAAGAGCUCAACACAGCGGGACAAAGUGGCUGUGUCUAGACUGCC, the self-cleavage came to 0.22.
Turning to GGAAGAGCCCAACACAGAGUGGCAAAGUGGCUGUGGCGUGACUGGU, the self-cleavage amounted to 0.01.
On to GGAAGAGCGCAAAACAGCGCGGCAAAGUGGCUGAGGCUAGACUGCC, for which the self-cleavage came out at 0.12.
As to GGAAGAGCUCAACACAGCGGGGCAAAGUGGCUGUGGAUAGACUGCG, the self-cleavage turned out to be 0.03.
The figure for GGAAGAGCUCAACACAGCGUGGCAAAGCCGCUUUGGCUAGACUGCC is 0.14; for GGAAGAGCCCAACACAGCUUGGCAACGUAGCUGUGGCUAGACUGGC it is 0.01.
GGAAGAGCACAACACAGCAUGGCAAAGUGGCAGUGGCUAGACUGUC: the self-cleavage was found to be 0.52.
GGAAGAGCACAACACAGCGUGGCAAAGUGGCCGUUGCUAGACUGCC: the self-cleavage came to 1.42.
As to GGAAGAGCGCAACACAGCGUAGCAAAGUGGCUGUGGCUAGACUGCC, the self-cleavage amounted to 0.08.
On to GGAAGAGCUCAACACAGCGACGCAAAGUGGCUGAAGCUAGACUGCC, for which the self-cleavage was determined as 0.04.
